Test results reported in patent US11795481B2, “Processes for producing a fermentation product” (Novozymes A/S, priority 2017, dated 2023).

Test system: multi-strain LAB culture
Assay: SSF of control mash with 1% w/w infected mash, AA13 candidates, HPLC of organic acids and ethanol (Example 3)
Assay type: cell-based
Conditions: SSF 32° C. up to 24 hours, 20% DS; for % delta Ethanol / % delta Lactic Acid: vs No Treatment
Protocol: A control mash was prepared in-house with an industry relevant blend of AA369 and Protease Pfu using a Lab-O-Mat incubator for 2 hours at 85° C. and 36% DS to simulate typical industry conditions. The mash was then frozen prior to use in SSF. An infected mash was prepared by infecting the control mash with a multi-strain LAB culture grown in MRS. The bacteria in control mash was incubated overnight, and then frozen with 20% glycerol. For this experiment, 1% weight/weight of the infected mash was mixed into the control mash. This mimics an infection event at a large-scale ethanol facility. For SSF, all mash was prepared with 1000 ppm of urea to aid with yeast fermentation. All treatments were dosed with a baseline commercial glucoamylase GSA, while AA13 candidates were dosed at either 10 ug/g-DS or 50 ug/g-DS. SSF was performed at 5 g scale with 10 uL/g rehydrated Ethanol Red yeast at 32° C. for up to 24 hours at 20% DS. At the end of fermentation, samples were deactivated with 50 uL of 40% sulfuric acid and then centrifuged. The supernatant was filtered through a 0.2 μm filter and then measured for soluble carbohydrates and organic acids using an ion-exchange H-column on HPLC.

Molecule	average Ethanol (AA13 dose 10 ug/g-DS) [g/L]	average Lactic Acid (AA13 dose 10 ug/g-DS) [g/L]	% delta Ethanol (AA13 dose 10 ug/g-DS) [%]	% delta Lactic Acid (AA13 dose 10 ug/g-DS) [%]	average Ethanol (AA13 dose 50 ug/g-DS) [g/L]	average Lactic Acid (AA13 dose 50 ug/g-DS) [g/L]	% delta Ethanol (AA13 dose 50 ug/g-DS) [%]	% delta Lactic Acid (AA13 dose 50 ug/g-DS) [%]
Talaromyces sayulitensis: Talaromyces sayulitensis AA13 polypeptide of SEQ ID NO: 150 (protein, listed as Talaromyces sayulitensis) MIVSIIVAAACFASAYGHGYLTIPASRTRLGFEAGIDICPECSILEPVTAWPDLETAQVGRSGPCGYNARVSVDYNQPGEYWGVEPVVTYMSGEVVEVQWCVDANGDHGGMFTYGVCQNQTLVDKFLTRGYLPTNDEKQAAENCFLEGELKCTDVSGQTCGYNPDCTAGEACWRNDWFTCNAFQANTARACEGVDGAPLNSCKTTIAGGYTVTKKIKIPDYSSNHTLLRFRWNSFQTAQVYLHCADIAISGSGNTTTSTSTSATSTAVSSCTATANLIPVTFRELVTTTWGENIFITGSISQLGSWSTGNAVALSASQYTASNPLWITTIDLPAGTTFEYKFIKKESDGSVIWESDPNRSYTVPTGCSSTIATAAASWR	78.7	3.4	1.3	1.5	78.5	3.4	1.2	1.4
Trichocladium asperum: Trichocladium asperum AA13 polypeptide of SEQ ID NO: 151 (protein, listed as Trichocladium asperum) MKQVTALSLIALATSVQGHGYMIGPASRTRQGFEAGTDTCPECTILEPVASWPDLDAAAIGRSGPCGYNARVSVDYNQPGKAWGNEIVETYAAGDVITVQWCVDNNGDHGGMFTYRICQDQALVDKFTDPSYLPTDAEKQAAEDCFNEGILSCGDVDGQDCSYSPDCSEGAACWRNDWFTCEKFGEGSCKGVDGAALNSCVTTIAGGYTVTKKVKLPDYSSEHTLLSFKWNSFQTGQIYLSCADIAITGGSGGGTSPNTTSSLAPVSSTSAPPSSSTSSSPQETCDAGTSVPVTFEEVAVPEAGQVIKLVGSISELGSWSPSAAIALARSANTWSATVNITAGESFEYKFINVEGSQVWWESDPNRSFTVPCGASANVTGTWR	78.0	3.3	0.5	−1.5	77.8	3.3	0.3	−0.4
Paraphoma sp.: Paraphoma sp. AA13 polypeptide of SEQ ID NO: 134 (protein, listed as Paraphoma sp.) MRSSVAFLSAFVASVQAHGYLSSPMSRTGLNAQAGADTCPECTILEPVTAWPDLDSAAVGRSGPCGYNARVSVDYNQPGPRWGSQPVITYTAGDTVDVQWCVDNNGDHGGMFAYRICQNQALVDKLLTPGYLPTDAEKQAAEDCFEAGTLKCTDVNGQSCGFNPDCQQGQACWRNDWFTCGGFQEGTKCRGVDNAPINSCYTSIAGGYTVTKRIKIPNYASNHTLLSLKWNSFQTPQIYLTCADIKINGAGGTTPNPPTSSRPATSTTTTSATSSAVATGCATPAATVAVTFNSKTTTVVGQTIKIAGSISQLGSWNTANAPALSASAYTSSNPLWSTTINLPAGTSFEYKFIKVESSGTVTYESGANRAYTVPRDCTGKATVDTQWK	78.5	3.4	1.2	1.4	77.8	3.5	0.2	6.9
Acremonium sp. XZ1982: Acremonium sp. XZ1982 AA13 polypeptide of SEQ ID NO: 128 (protein, Acremonium sp. XZ1982) MKPASFFAHMGLVSSVLGHGYLTIPRSRTRLGAEAGIDTCPECTIREPVTAWPDLDQATVGRSGPCGFNARVSVDYNQPSANWGSAPVATYTRGQTVTVEWCVDNNGDHGGMFTYRICQDQALVDKLLTPGYLPTEAEKEAAERCFQRGTLPCTDVSGQSCGYNPDCQQGQACWRNDWFTCNAFQADSRRGCQGVDAAPLGSCYTSIAGGYRVTKQIKIPDYVSNHTLLSFKWNSFQTPQIYLSCADIAITGGTGAPNPGTTTTRMTATPTNTACAAASSVAVTFNQVATTSPGQTIKLVGSIQQLGSWNPSAAPALSASQYTSAKPLWSYTVTLAAGSTFQYKFVNVQADGTIRWESDPNRSYTVPRGCDQRVTVESTWR	78.7	3.0	1.3	−9.5	78.0	3.2	0.4	−4.1
Penicillium sp-72443: Penicillium sp-72443 AA13 polypeptide of SEQ ID NO: 144 (protein, Penicillium sp-72443) MKAAFISTLQCLLTLVNAHGYLTIPSSRTRLGFEAGIDTCPECSILEPVTAWPDLEAAQVGRSGPCGYNARVSVDYNQPGDYWGNSVVATYTANDIVEVQWCVDNNGDHGGMFTYGICQNQTLVDLFLTPGYLPTTEEKQAAEDCFLEGELKCTDVSGQTCGYNPDCTSDQACYRTDWFTCNAFNDDTNRACQGVDGAALNSCTTTIAGGYTVTKKIKIPDYSSDHTLLRFRWNSYQTAQVYLHCADIAISGSGSGSSSTLSTGSTSSTAATSTVTKTSTTTASTTCISATTVPVVFDELVTTTYGENIYITGSIGQLSSWSTLSAIALSASSYTSSNPLWTVTIDLPAGTTFEYKFIKKETDGSIIWESDPNRSYTVPTGCSGLTATASATWR	79.3	2.9	2.2	−12.5	79.5	3.0	2.3	−10.3
Penicillium sp-54569: Penicillium sp-54569 AA13 polypeptide of SEQ ID NO: 143 (protein, Penicillium sp-54569) MKATSILTLASFLSSVNAHGYLTIPSSRTRLGFEAGIDTCPECSILEPVTAWPDLEEAQVGRSGPCGYNARVSVDYNQPGDYWGNSVVATYTADEVVEVQWCVDNNGDHGGMFTYGICQNQTLVDLFLTPGYLPTTDEKQAAEDCFLEGELKCTDVDGQTCGYNPDCTSDEACYRNDWFTCNAFNADSNRACQGVDGAAEGSCTTTISGGYTVTKKIKIPDYDSDHTLLRFRWNSYQTAQVYLHCADIAISGSGSGSTSSSSSSASSTSSTTNTLTTTKSTTTSSATCTAATTISVTFNELVTTTYGENIFISGSISQLSSWSTSSAIALSASSYTSSNPLWTVTISLPVGSTFEYKFIKKETDGSIVWESDPNRSYTVPAGCSGATATATATWR	76.2	3.4	−1.8	3.0	77.4	3.3	−0.3	−0.6
Setophaeosphaeria sp. NN051506: Setophaeosphaeria sp. NN051506 AA13 polypeptide of SEQ ID NO: 149 (protein, Setophaeosphaeria sp. NN051506) MRSAIGKVIAFVASVNAHGYLTSPMSRTGLNAQSGADTCPECTILEPVTAWPDLDSAQVGRSGPCGYNARVSVDYNQPGPRWGSAPVITYTAGDVVDVQWCVDNNGDHGGMFTYRICQDQALVDKLITPGYLPTDAEKQAAEDCFERGLLKCTDVSGQTCGYNPDCQSGQACWRNDWFTCKGFNEGSKCKGVDGAPLNSCYTSIAGGYTVSSKIKIPNYSSNHTLLSFKWNSFQTPQVYLTCADIKIVGSGGTTPTSSSTTTVSTSTATASATSCATPVSNVAVTFTSKTTTIFGQTIKIAGSIAQLGSWNTANAPALSADQYTAANPIWRTTISLPAGTSFEYKFIKVESSGAVTYESGANRVYTVPNGCAGTASVDTTWK	77.2	3.3	−0.5	−0.2	77.5	3.3	−0.1	−1.7
